Structures are written as SMILES. Some of the results follow. Repeats are few or missing, and single values can be far off.
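Also: cells treated in 1,536-well plates, then fixed and DAPI-stained, with nuclei counted from automated high-throughput microscope images.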

The test system of the assay is MeWo. Description: cell count relative to DMSO control; melanoma cells; higher = more viable cells. Particulars: library dose: standard library concentration; 72 h.
`CC[C@]1(O)C[C@H]2CN(CCc3c([nH]c4ccccc34)[C@@](C(=O)OC)(c3cc4c(cc3OC)N(C=O)[C@H]3[C@@](O)(C(=O)OC)[C@H](OC(C)=O)[C@]5(CC)C=CCN6CC[C@]43[C@@H]65)C2)C1` [vincristine] + COc1ccc2c(c1)CCC1C2CCC2(C)C(NCCCCCCN3C(=O)C=CC3=O)CCC12 [U73122] (first compound 0.0005 µM, partner dose 2 µM): the cell count was 57.8%.

Compound `Cc1cc(Nc2cc(N3CCN(C)CC3)nc(Sc3ccc(NC(=O)C4CC4)cc3)n2)n[nH]1` [Tozasertib] + N#Cc1c(O)c2c(-c3ccc(-c4ccccc4O)cc3)csc2[nH]c1=O [A769662] (first compound 0.03 µM, partner dose 10 µM) gave a cell count of 88.5%.

With `Cc1cc(Nc2cc(N3CCN(C)CC3)nc(Sc3ccc(NC(=O)C4CC4)cc3)n2)n[nH]1` [Tozasertib] + Cn1cncc1[C@@](N)(c1ccc(Cl)cc1)c1ccc2c(c1)c(-c1cccc(Cl)c1)cc(=O)n2C [tipifarnib] (first compound 0.03 µM, partner dose 0.05 µM), the cell count worked out at 85.5%.

In turn, `Cc1cc(Nc2cc(N3CCN(C)CC3)nc(Sc3ccc(NC(=O)C4CC4)cc3)n2)n[nH]1` [Tozasertib] + C#Cc1cccc(Nc2ncnc3cc(OCCOC)c(OCCOC)cc23)c1 [erlotinib] (first compound 0.03 µM, partner dose 4 µM) returned a cell count of 60.6%.

As for `Cc1cc(Nc2cc(N3CCN(C)CC3)nc(Sc3ccc(NC(=O)C4CC4)cc3)n2)n[nH]1` [Tozasertib] + COc1cc(N2CCC(N3CCN(C)CC3)CC2)ccc1Nc1ncc(Cl)c(Nc2ccccc2S(=O)(=O)C(C)C)n1 [NVP-TAE684] (first compound 0.03 µM, partner dose 0.4 µM), the cell count was found to be 67.1%.

Consider `CC[C@]1(O)C[C@H]2CN(CCc3c([nH]c4ccccc34)[C@@](C(=O)OC)(c3cc4c(cc3OC)N(C=O)[C@H]3[C@@](O)(C(=O)OC)[C@H](OC(C)=O)[C@]5(CC)C=CCN6CC[C@]43[C@@H]65)C2)C1` [vincristine] + CCc1ccc(CCOc2ccc(CC3SC(=O)NC3=O)cc2)nc1 [pioglitazone] (first compound 0.0005 µM, partner dose 10 µM), for which the cell count came to 20%.

For the compound `Cc1cc(Nc2cc(N3CCN(C)CC3)nc(Sc3ccc(NC(=O)C4CC4)cc3)n2)n[nH]1` [Tozasertib] + COc1cc(Nc2ncc(F)c(Nc3ccc4c(n3)NC(=O)C(C)(C)O4)n2)cc(OC)c1OC [Tamatinib] (first compound 0.03 µM, partner dose 2 µM), the cell count came out at 75.8%.

In turn, `Cc1cc(Nc2cc(N3CCN(C)CC3)nc(Sc3ccc(NC(=O)C4CC4)cc3)n2)n[nH]1` [Tozasertib] + C[C@@H](Oc1cc(-c2cnn(C3CCNCC3)c2)cnc1N)c1c(Cl)ccc(F)c1Cl [Crizotinib] (first compound 0.03 µM, partner dose 1 µM) displayed a cell count of 58.1%.

Consider `CC[C@]1(O)C[C@H]2CN(CCc3c([nH]c4ccccc34)[C@@](C(=O)OC)(c3cc4c(cc3OC)N(C=O)[C@H]3[C@@](O)(C(=O)OC)[C@H](OC(C)=O)[C@]5(CC)C=CCN6CC[C@]43[C@@H]65)C2)C1` [vincristine] + CN(NC(=O)CC(=O)NN(C)C(=S)c1ccccc1)C(=S)c1ccccc1 [STA4783] (first compound 0.0005 µM, partner dose 0.03 µM), for which the cell count was 14.3%.

The compound `CC[C@]1(O)C[C@H]2CN(CCc3c([nH]c4ccccc34)[C@@](C(=O)OC)(c3cc4c(cc3OC)N(C=O)[C@H]3[C@@](O)(C(=O)OC)[C@H](OC(C)=O)[C@]5(CC)C=CCN6CC[C@]43[C@@H]65)C2)C1` [vincristine] + NC1(c2ccc(-c3nc4ccn5c(=O)[nH]nc5c4cc3-c3ccccc3)cc2)CCC1 [MK2206] (first compound 0.0005 µM, partner dose 2 µM) gave a cell count of 25.1%.

Regarding `CC[C@]1(O)C[C@H]2CN(CCc3c([nH]c4ccccc34)[C@@](C(=O)OC)(c3cc4c(cc3OC)N(C=O)[C@H]3[C@@](O)(C(=O)OC)[C@H](OC(C)=O)[C@]5(CC)C=CCN6CC[C@]43[C@@H]65)C2)C1` [vincristine] + O=C(O)c1ccc(-c2c[nH]c3ncc(-c4ccccc4)cc23)cc1C1CCCC1 [GSK650394] (first compound 0.0005 µM, partner dose 0.8 µM), the cell count stood at 96.6%.

Regarding `CC[C@]1(O)C[C@H]2CN(CCc3c([nH]c4ccccc34)[C@@](C(=O)OC)(c3cc4c(cc3OC)N(C=O)[C@H]3[C@@](O)(C(=O)OC)[C@H](OC(C)=O)[C@]5(CC)C=CCN6CC[C@]43[C@@H]65)C2)C1` [vincristine] + COc1ccc(C2=N[C@@H](c3ccc(Cl)cc3)[C@@H](c3ccc(Cl)cc3)N2C(=O)N2CCNC(=O)C2)c(OC(C)C)c1 [Nutlin-3] (first compound 0.0005 µM, partner dose 0.5 µM), the cell count turned out to be 99.3%.

As to `N#CC[C@H](C1CCCC1)n1cc(-c2ncnc3[nH]ccc23)cn1` [ruxolitinib] + CC(=O)c1c(C)c2cnc(Nc3ccc(N4CCNCC4)cn3)nc2n(C2CCCC2)c1=O [palbociclib] (first compound 5 µM, partner dose 0.2 µM), the cell count turned out to be 44.9%.

These data come from the supplement of paper PMC4604168 (melanoma cell lines).
